These results are taken from publication PMC9911399, “Two distinct binding modes provide the RNA-binding protein RbFox with extraordinary sequence specificity”.

Numbering of substitutions follows the chain as printed; changes in the protein carry UniProt numbers. The list shows a part of the results.

The chains are these.
T1: RBFOX1 RRM RbFoxmut (Fox-RRM*) (Homo sapiens, UniProt Q9NWB1 109-208, R118D;E147R;N151S;E152T)
T1 sequence: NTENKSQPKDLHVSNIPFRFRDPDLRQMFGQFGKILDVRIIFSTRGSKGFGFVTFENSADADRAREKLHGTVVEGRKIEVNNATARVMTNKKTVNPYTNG

B1: UGAAUUU (DNA:RNA)
RNA: GGGAGACCGGAAUUCAGAUUGUCCUGAAUUUUUAAAUCCCGUCGUAGCCACCA
DNA 1: CAATCTGAATTCCGGTCTCCC
DNA 2: TGGTGGCTACGACGGGATT
B2: UGGUACU (DNA:RNA)
RNA: B1 RNA with A27G, A28U, U29A, U30C
DNA 1: CAATCTGAATTCCGGTCTCCC
DNA 2: TGGTGGCTACGACGGGATT
B3: UUUAGUA (DNA:RNA)
RNA: B1 RNA with G26U, A27U, U29G, U31A
DNA 1: CAATCTGAATTCCGGTCTCCC
DNA 2: TGGTGGCTACGACGGGATT
B4: GAACGAC (DNA:RNA)
RNA: B1 RNA with U25G, G26A, A28C, U29G, U30A, U31C
DNA 1: CAATCTGAATTCCGGTCTCCC
DNA 2: TGGTGGCTACGACGGGATT
B5: GAGGUCA (DNA:RNA)
RNA: B1 RNA with U25G, G26A, A27G, A28G, U30C, U31A
DNA 1: CAATCTGAATTCCGGTCTCCC
DNA 2: TGGTGGCTACGACGGGATT
B6: UUUUGGU (DNA:RNA)
RNA: B1 RNA with G26U, A27U, A28U, U29G, U30G
DNA 1: CAATCTGAATTCCGGTCTCCC
DNA 2: TGGTGGCTACGACGGGATT
B7: UACGCUU (DNA:RNA)
RNA: B1 RNA with G26A, A27C, A28G, U29C
DNA 1: CAATCTGAATTCCGGTCTCCC
DNA 2: TGGTGGCTACGACGGGATT
B8: GUCCUGA (DNA:RNA)
RNA: B1 RNA with U25G, G26U, A27C, A28C, U30G, U31A
DNA 1: CAATCTGAATTCCGGTCTCCC
DNA 2: TGGTGGCTACGACGGGATT
B9: UAUAAAU (DNA:RNA)
RNA: B1 RNA with G26A, A27U, U29A, U30A
DNA 1: CAATCTGAATTCCGGTCTCCC
DNA 2: TGGTGGCTACGACGGGATT
B10: AAUGAAC (DNA:RNA)
RNA: GGGAGACCGGAAUUCAGAUUGUCCAAUGAACUUAAAUCCCGUCGUAGCCACCA
DNA 1: CAATCTGAATTCCGGTCTCCC
DNA 2: TGGTGGCTACGACGGGATT
B11: AUCCCAC (DNA:RNA)
RNA: B10 RNA with A26U, U27C, G28C, A29C
DNA 1: CAATCTGAATTCCGGTCTCCC
DNA 2: TGGTGGCTACGACGGGATT
B12: UGUGAUC (DNA:RNA)
RNA: B10 RNA with A25U, A26G, A30U
DNA 1: CAATCTGAATTCCGGTCTCCC
DNA 2: TGGTGGCTACGACGGGATT
B13: CCGGGGC (DNA:RNA)
RNA: B10 RNA with A25C, A26C, U27G, A29G, A30G
DNA 1: CAATCTGAATTCCGGTCTCCC
DNA 2: TGGTGGCTACGACGGGATT
B14: GCCGGGC (DNA:RNA)
RNA: B10 RNA with A25G, A26C, U27C, A29G, A30G
DNA 1: CAATCTGAATTCCGGTCTCCC
DNA 2: TGGTGGCTACGACGGGATT
B15: AACAAGG (DNA:RNA)
RNA: B10 RNA with U27C, G28A, A30G, C31G
DNA 1: CAATCTGAATTCCGGTCTCCC
DNA 2: TGGTGGCTACGACGGGATT
B16: CCCCGCU (DNA:RNA)
RNA: B1 RNA with U25C, G26C, A27C, A28C, U29G, U30C
DNA 1: CAATCTGAATTCCGGTCTCCC
DNA 2: TGGTGGCTACGACGGGATT
B17: AACCCGA (DNA:RNA)
RNA: B10 RNA with U27C, G28C, A29C, A30G, C31A
DNA 1: CAATCTGAATTCCGGTCTCCC
DNA 2: TGGTGGCTACGACGGGATT
B18: UUUGGUU (DNA:RNA)
RNA: B1 RNA with G26U, A27U, A28G, U29G
DNA 1: CAATCTGAATTCCGGTCTCCC
DNA 2: TGGTGGCTACGACGGGATT
B19: AUGUUCG (DNA:RNA)
RNA: B10 RNA with A26U, U27G, G28U, A29U, A30C, C31G
DNA 1: CAATCTGAATTCCGGTCTCCC
DNA 2: TGGTGGCTACGACGGGATT
B20: GUGGCGC (DNA:RNA)
RNA: B10 RNA with A25G, A26U, U27G, A29C, A30G
DNA 1: CAATCTGAATTCCGGTCTCCC
DNA 2: TGGTGGCTACGACGGGATT
B21: CCCUAAU (DNA:RNA)
RNA: B10 RNA with A25C, A26C, U27C, G28U, C31U
DNA 1: CAATCTGAATTCCGGTCTCCC
DNA 2: TGGTGGCTACGACGGGATT
B22: CACAGGC (DNA:RNA)
RNA: B10 RNA with A25C, U27C, G28A, A29G, A30G
DNA 1: CAATCTGAATTCCGGTCTCCC
DNA 2: TGGTGGCTACGACGGGATT
B23: CUAUGUC (DNA:RNA)
RNA: B1 RNA with U25C, G26U, A28U, U29G, U31C
DNA 1: CAATCTGAATTCCGGTCTCCC
DNA 2: TGGTGGCTACGACGGGATT
B24: ACGUCAC (DNA:RNA)
RNA: B10 RNA with A26C, U27G, G28U, A29C
DNA 1: CAATCTGAATTCCGGTCTCCC
DNA 2: TGGTGGCTACGACGGGATT
B25: CCUAGAU (DNA:RNA)
RNA: B10 RNA with A25C, A26C, G28A, A29G, C31U
DNA 1: CAATCTGAATTCCGGTCTCCC
DNA 2: TGGTGGCTACGACGGGATT
B26: CUCCCGG (DNA:RNA)
RNA: GGGAGACCGGAAUUCAGAUUGUCCCUCCCGGUUAAAUCCCGUCGUAGCCACCA
DNA 1: CAATCTGAATTCCGGTCTCCC
DNA 2: TGGTGGCTACGACGGGATT
B27: UCCGUUC (DNA:RNA)
RNA: B1 RNA with G26C, A27C, A28G, U31C
DNA 1: CAATCTGAATTCCGGTCTCCC
DNA 2: TGGTGGCTACGACGGGATT
B28: GACGACU (DNA:RNA)
RNA: B10 RNA with A25G, U27C, A30C, C31U
DNA 1: CAATCTGAATTCCGGTCTCCC
DNA 2: TGGTGGCTACGACGGGATT
B29: UAUAUCC (DNA:RNA)
RNA: B10 RNA with A25U, G28A, A29U, A30C
DNA 1: CAATCTGAATTCCGGTCTCCC
DNA 2: TGGTGGCTACGACGGGATT
B30: UGGACUA (DNA:RNA)
RNA: B1 RNA with A27G, U29C, U31A
DNA 1: CAATCTGAATTCCGGTCTCCC
DNA 2: TGGTGGCTACGACGGGATT
B31: UUAUCCU (DNA:RNA)
RNA: B1 RNA with G26U, A28U, U29C, U30C
DNA 1: CAATCTGAATTCCGGTCTCCC
DNA 2: TGGTGGCTACGACGGGATT

For the assay, the target named is T1, RBFOX1 RRM RbFoxmut (Fox-RRM*). The assay can be described thus: EMSA; HiTS-Eq, 1 nM pool, 10 min; buffer printed only for the single-RNA assays: 10 mM Tris pH 7.5, 150 mM NaCl, 3.4 mM EDTA, 0.001% NP-40, 30 C. To be noted: tags: His6 N-terminal (pET28a); label: 5' 32P. In a few lines: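 Purified RbFox RRM (wild type or mutant) was equilibrated for 10 min in 50 µL with 1 nM of a 5′-radiolabelled pool of RNA with 7 randomized nucleotides, its flanks annealed to DNA oligonucleotides, across increasing protein concentrations. Free RNA was separated by 8% native PAGE, excised, reverse-transcribed, PCR-barcoded and sequenced on an Illumina HiSeq 2500. Relative association constants came from read-count changes of each variant against the control reaction, normalised to the cognate motif.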
Background: In EMSA bound probe runs differently from free probe, usually more slowly.
On to B1, for which the binding signal was 0.0646 KA relative to UGCAUGU.

Consider B2, for which the binding signal was 0.104 KA relative to UGCAUGU.

Turning to B3, the binding signal was 0.144 KA relative to UGCAUGU.

Turning to B4, the binding signal is 0.0905 KA relative to UGCAUGU.

Regarding B5, the binding signal is 0.0901 KA relative to UGCAUGU.

Take B6: the binding signal is 0.102 KA relative to UGCAUGU.

Take B7: the binding signal was 0.0979 KA relative to UGCAUGU.

For B8, the binding signal was 0.112 KA relative to UGCAUGU.

Consider B9, for which the binding signal was 0.0469 KA relative to UGCAUGU.

For B10, the binding signal is 0.0901 KA relative to UGCAUGU.

For B11, the binding signal is 0.0711 KA relative to UGCAUGU.

Turning to B12, the binding signal was 0.395 KA relative to UGCAUGU.

Consider B13, for which the binding signal was 0.101 KA relative to UGCAUGU.

In the case of B14, the binding signal is 0.101 KA relative to UGCAUGU.

Regarding B15, the binding signal is 0.0693 KA relative to UGCAUGU.

For the molecule B16, the binding signal is 0.0902 KA relative to UGCAUGU.

B17: the binding signal is 0.0618 KA relative to UGCAUGU.

Turning to B18, the binding signal was 0.098 KA relative to UGCAUGU.

With B19, the binding signal was 0.412 KA relative to UGCAUGU.

On to B20, for which the binding signal was 0.135 KA relative to UGCAUGU.

On to B21, for which the binding signal is 0.0718 KA relative to UGCAUGU.

B22: the binding signal is 0.078 KA relative to UGCAUGU.

Turning to B23, the binding signal is 0.179 KA relative to UGCAUGU.

As to B24, the binding signal was 0.0789 KA relative to UGCAUGU.

B25: the binding signal is 0.0917 KA relative to UGCAUGU.

B26: the binding signal is 0.0807 KA relative to UGCAUGU.

Turning to B27, the binding signal was 0.0449 KA relative to UGCAUGU.

Turning to B28, the binding signal was 0.0456 KA relative to UGCAUGU.

Regarding B29, the binding signal was 0.0785 KA relative to UGCAUGU.

Turning to B30, the binding signal was 0.057 KA relative to UGCAUGU.

Take B31: the binding signal was 0.0814 KA relative to UGCAUGU.
